Laboratory results reported in patent publication US5391540A, “Substituted pyridine compounds” (Rohm and Haas Company, priority 1993, dated 1995).
At least one read-out could not be matched to a standard name with certainty. Some ranges recur; such a range may be that of the whole group of compounds.

Assays:
Test in all cases: Post-emergence herbicidal activity (Table C)
Assay type in all cases: in vivo
Canada thistle = details: Cath, 11.2 kg/ha, 10-14 days
Cocklebur = details: Cobu, 11.2 kg/ha, 10-14 days
Downy Brome = details: Dobr, 11.2 kg/ha, 10-14 days
Morningglory = details: Mogl, 11.2 kg/ha, 10-14 days
Pennsylvania Smartweed = details: Pesw, 11.2 kg/ha, 10-14 days
Quackgrass = details: Rhqg, 11.2 kg/ha, 10-14 days
Rhizome Johnsongrass = details: Rhjg, 11.2 kg/ha, 10-14 days
Velvetleaf = details: Vele, 11.2 kg/ha, 10-14 days
Yellow Nutsedge = details: Yens, 11.2 kg/ha, 10-14 days
Barnyardgrass = details: Bygr, 11.2 kg/ha, 10-14 days
Common Lambsquarters = details: Colq, 11.2 kg/ha, 10-14 days

For COC(=O)c1c(C(F)(F)F)nc(OC)c(N=CN(C)C)c1CC(C)C [Compound 57, 3-pyridinecarboxylic acid, 5[[(dimethylamino)methylene]amino]-6-methoxy-4-(2-methylpropyl)-2-(trifluoromethyl)-, methyl ester], the “post-emergent herbicidal activity index” value (Canada thistle) was 0 (0-24% inhibition), the “post-emergent herbicidal activity index” value (Cocklebur) was 0 (0-24% inhibition) and the “post-emergent herbicidal activity index” value (Downy Brome) was 0 (0-24% inhibition). The “post-emergent herbicidal activity index” value (Morningglory) was 0 (0-24% inhibition), the “post-emergent herbicidal activity index” value (Pennsylvania Smartweed) was 0 (0-24% inhibition) and the “post-emergent herbicidal activity index” value (Quackgrass) was 0 (0-24% inhibition). The “post-emergent herbicidal activity index” value (Rhizome Johnsongrass) was 0 (0-24% inhibition), the “post-emergent herbicidal activity index” value (Velvetleaf) was 0 (0-24% inhibition) and the “post-emergent herbicidal activity index” value (Yellow Nutsedge) was 0 (0-24% inhibition). The “post-emergent herbicidal activity index” value (Barnyardgrass) was 0 (0-24% inhibition) and the “post-emergent herbicidal activity index” value (Common Lambsquarters) was 0 (0-24% inhibition).
In the case of COC(=O)c1c(OC)nc(C(F)(F)F)c(C(=O)OC)c1C [Compound 86, 3,5-pyridinedicarboxylic acid, 2-methoxy-4-methy1-6-(trifluoromethyl)-, dimethyl ester], the “post-emergent herbicidal activity index” value (Canada thistle) is reported as 0 (0-24% inhibition), the “post-emergent herbicidal activity index” value (Cocklebur) is reported as 0 (0-24% inhibition) and the “post-emergent herbicidal activity index” value (Downy Brome) is reported as 0 (0-24% inhibition). For the same compound, the “post-emergent herbicidal activity index” value (Morningglory) was 0 (0-24% inhibition), the “post-emergent herbicidal activity index” value (Pennsylvania Smartweed) was 0 (0-24% inhibition) and the “post-emergent herbicidal activity index” value (Quackgrass) was 0 (0-24% inhibition). For the same compound, the “post-emergent herbicidal activity index” value (Rhizome Johnsongrass) was 0 (0-24% inhibition), the “post-emergent herbicidal activity index” value (Velvetleaf) was 0 (0-24% inhibition) and the “post-emergent herbicidal activity index” value (Yellow Nutsedge) was 0 (0-24% inhibition). The “post-emergent herbicidal activity index” value (Barnyardgrass) was 1 (25-49% inhibition) and the “post-emergent herbicidal activity index” value (Common Lambsquarters) was 0 (0-24% inhibition).
With CCOC=Nc1c(C(F)(F)F)nc(OC)c(C(=O)OC)c1CC(C)C [Compound 61, 3-pyridinecarboxylic acid, 5-[(ethoxymethylene)amino]-2-methoxy-4-(2-methylpropyl)-6-(trifluoromethyl)-, methyl ester] the “post-emergent herbicidal activity index” value (Canada thistle) was 0 (0-24% inhibition), the “post-emergent herbicidal activity index” value (Cocklebur) was 0 (0-24% inhibition) and the “post-emergent herbicidal activity index” value (Downy Brome) was 0 (0-24% inhibition). For the same compound, the “post-emergent herbicidal activity index” value (Morningglory) was 0 (0-24% inhibition), the “post-emergent herbicidal activity index” value (Pennsylvania Smartweed) was 0 (0-24% inhibition) and the “post-emergent herbicidal activity index” value (Quackgrass) was 0 (0-24% inhibition). The “post-emergent herbicidal activity index” value (Rhizome Johnsongrass) was 0 (0-24% inhibition), the “post-emergent herbicidal activity index” value (Velvetleaf) was 0 (0-24% inhibition) and the “post-emergent herbicidal activity index” value (Yellow Nutsedge) was 0 (0-24% inhibition). The “post-emergent herbicidal activity index” value (Barnyardgrass) was 0 (0-24% inhibition) and the “post-emergent herbicidal activity index” value (Common Lambsquarters) was 1 (25-49% inhibition).
COC(=O)c1c(OC)nc(C(F)(F)F)c(C(=O)OC)c1CSC [Compound 89, 3,5-pyridinedicarboxylic acid, 2-methoxy-4-[(methylthio)methyl]-6-(trifluoromethyl)-, dimethyl ester] was tested, and the “post-emergent herbicidal activity index” value (Canada thistle) was 0 (0-24% inhibition), the “post-emergent herbicidal activity index” value (Cocklebur) was 0 (0-24% inhibition) and the “post-emergent herbicidal activity index” value (Downy Brome) was 0 (0-24% inhibition). For the same compound, the “post-emergent herbicidal activity index” value (Morningglory) was 1 (25-49% inhibition), the “post-emergent herbicidal activity index” value (Pennsylvania Smartweed) was 0 (0-24% inhibition) and the “post-emergent herbicidal activity index” value (Quackgrass) was 0 (0-24% inhibition). The “post-emergent herbicidal activity index” value (Rhizome Johnsongrass) was 0 (0-24% inhibition), the “post-emergent herbicidal activity index” value (Velvetleaf) was 0 (0-24% inhibition) and the “post-emergent herbicidal activity index” value (Yellow Nutsedge) was 0 (0-24% inhibition). The “post-emergent herbicidal activity index” value (Barnyardgrass) was 0 (0-24% inhibition) and the “post-emergent herbicidal activity index” value (Common Lambsquarters) was 3 (75-99% inhibition).
For COC(=O)c1c(OC)nc(C(F)(F)F)c(C2=NCCO2)c1CC(C)C [Compound 43, 3-pyridinecarboxylic acid, 5-(4,5-dihydro-2-oxazolyl)-2-methoxy-4-(2-methylpropyl)-6-(trifluoromethyl)-, methyl ester], the “post-emergent herbicidal activity index” value (Canada thistle) was 0 (0-24% inhibition), the “post-emergent herbicidal activity index” value (Cocklebur) was 1 (25-49% inhibition) and the “post-emergent herbicidal activity index” value (Downy Brome) was 0 (0-24% inhibition). For the same compound, the “post-emergent herbicidal activity index” value (Morningglory) was 1 (25-49% inhibition), the “post-emergent herbicidal activity index” value (Pennsylvania Smartweed) was 2 (50-74% inhibition) and the “post-emergent herbicidal activity index” value (Quackgrass) was 0 (0-24% inhibition). For the same compound, the “post-emergent herbicidal activity index” value (Rhizome Johnsongrass) was 0 (0-24% inhibition), the “post-emergent herbicidal activity index” value (Velvetleaf) was 0 (0-24% inhibition) and the “post-emergent herbicidal activity index” value (Yellow Nutsedge) was 0 (0-24% inhibition). The “post-emergent herbicidal activity index” value (Barnyardgrass) was 1 (25-49% inhibition) and the “post-emergent herbicidal activity index” value (Common Lambsquarters) was 2 (50-74% inhibition).
With COC(=O)c1c(OC)nc(C(F)(F)F)c(C(=O)OC)c1CBr [Compound 87, 3,5-pyridinedicarboxylic acid, 4-(bromomethyl)-2-methoxy-6-(trifluoromethyl)-, dimethyl ester] the “post-emergent herbicidal activity index” value (Canada thistle) was 0 (0-24% inhibition), the “post-emergent herbicidal activity index” value (Cocklebur) was 0 (0-24% inhibition) and the “post-emergent herbicidal activity index” value (Downy Brome) was 0 (0-24% inhibition). For the same compound, the “post-emergent herbicidal activity index” value (Morningglory) was 0 (0-24% inhibition), the “post-emergent herbicidal activity index” value (Pennsylvania Smartweed) was 0 (0-24% inhibition) and the “post-emergent herbicidal activity index” value (Quackgrass) was 0 (0-24% inhibition). For the same compound, the “post-emergent herbicidal activity index” value (Rhizome Johnsongrass) was 0 (0-24% inhibition), the “post-emergent herbicidal activity index” value (Velvetleaf) was 0 (0-24% inhibition) and the “post-emergent herbicidal activity index” value (Yellow Nutsedge) was 0 (0-24% inhibition). For the same compound, the “post-emergent herbicidal activity index” value (Barnyardgrass) was 0 (0-24% inhibition) and the “post-emergent herbicidal activity index” value (Common Lambsquarters) was 0 (0-24% inhibition).
For COC(=O)c1c(C(F)(F)F)nc(OC)c(C(=O)NCCO)c1CC(C)C [Compound 25, 3-pyridinecarboxylic acid, 5-[[(2-hydroxyethyl)amino]carbonyl]-6-methoxy-4-(2-methylpropyl)-2-(trifluoromethyl)-, methyl ester, hydrate (1:0.2)], the “post-emergent herbicidal activity index” value (Canada thistle) was 0 (0-24% inhibition), the “post-emergent herbicidal activity index” value (Cocklebur) was 0 (0-24% inhibition) and the “post-emergent herbicidal activity index” value (Downy Brome) was 0 (0-24% inhibition). For the same compound, the “post-emergent herbicidal activity index” value (Morningglory) was 0 (0-24% inhibition), the “post-emergent herbicidal activity index” value (Pennsylvania Smartweed) was 0 (0-24% inhibition) and the “post-emergent herbicidal activity index” value (Quackgrass) was 0 (0-24% inhibition). For the same compound, the “post-emergent herbicidal activity index” value (Rhizome Johnsongrass) was 0 (0-24% inhibition), the “post-emergent herbicidal activity index” value (Velvetleaf) was 0 (0-24% inhibition) and the “post-emergent herbicidal activity index” value (Yellow Nutsedge) was 0 (0-24% inhibition). For the same compound, the “post-emergent herbicidal activity index” value (Barnyardgrass) was 1 (25-49% inhibition) and the “post-emergent herbicidal activity index” value (Common Lambsquarters) was 0 (0-24% inhibition).
With COc1nc(C(F)(F)F)c(C2=NCCS2)c(CC(C)C)c1C(=O)SC [Compound 54, 3-pyridinecarbothioic acid, 5-(4,5-dihydro-2-thiazolyl)-2-methoxy-4-(2-methylpropyl)-6-(trifluoromethyl)-, S-methyl ester] the “post-emergent herbicidal activity index” value (Canada thistle) was 0 (0-24% inhibition), the “post-emergent herbicidal activity index” value (Cocklebur) was 0 (0-24% inhibition) and the “post-emergent herbicidal activity index” value (Downy Brome) was 0 (0-24% inhibition). The “post-emergent herbicidal activity index” value (Morningglory) was 0 (0-24% inhibition), the “post-emergent herbicidal activity index” value (Pennsylvania Smartweed) was 0 (0-24% inhibition) and the “post-emergent herbicidal activity index” value (Quackgrass) was 0 (0-24% inhibition). For the same compound, the “post-emergent herbicidal activity index” value (Rhizome Johnsongrass) was 0 (0-24% inhibition), the “post-emergent herbicidal activity index” value (Velvetleaf) was 0 (0-24% inhibition) and the “post-emergent herbicidal activity index” value (Yellow Nutsedge) was 0 (0-24% inhibition). The “post-emergent herbicidal activity index” value (Barnyardgrass) was 0 (0-24% inhibition) and the “post-emergent herbicidal activity index” value (Common Lambsquarters) was 0 (0-24% inhibition).
For CCOC(=O)c1c(OC)nc(C(F)(F)F)c(C(=O)OC)c1CC(C)C [Compound 4, 3,5-pyridinedicarboxylic acid, 2-methoxy-4-(2-methylpropyl)-6-(trifluoromethyl)-, 3-ethyl 5-methyl ester], the “post-emergent herbicidal activity index” value (Canada thistle) was 0 (0-24% inhibition), the “post-emergent herbicidal activity index” value (Cocklebur) was 0 (0-24% inhibition) and the “post-emergent herbicidal activity index” value (Downy Brome) was 0 (0-24% inhibition). The “post-emergent herbicidal activity index” value (Morningglory) was 0 (0-24% inhibition), the “post-emergent herbicidal activity index” value (Pennsylvania Smartweed) was 0 (0-24% inhibition) and the “post-emergent herbicidal activity index” value (Quackgrass) was 0 (0-24% inhibition). The “post-emergent herbicidal activity index” value (Rhizome Johnsongrass) was 0 (0-24% inhibition), the “post-emergent herbicidal activity index” value (Velvetleaf) was 0 (0-24% inhibition) and the “post-emergent herbicidal activity index” value (Yellow Nutsedge) was 0 (0-24% inhibition). For the same compound, the “post-emergent herbicidal activity index” value (Barnyardgrass) was 0 (0-24% inhibition) and the “post-emergent herbicidal activity index” value (Common Lambsquarters) was 0 (0-24% inhibition).
With COC(=O)c1c(OC)nc(C(F)(F)F)c(CO)c1CC(C)C [Compound 40, 3-pyridinecarboxylic acid, 5-(hydroxymethyl)-2-methoxy-4-(2-methylpropyl)-6-(trifluoromethyl)-, methyl ester] the “post-emergent herbicidal activity index” value (Canada thistle) was 0 (0-24% inhibition), the “post-emergent herbicidal activity index” value (Cocklebur) was 0 (0-24% inhibition) and the “post-emergent herbicidal activity index” value (Downy Brome) was 0 (0-24% inhibition). For the same compound, the “post-emergent herbicidal activity index” value (Morningglory) was 0 (0-24% inhibition), the “post-emergent herbicidal activity index” value (Pennsylvania Smartweed) was 0 (0-24% inhibition) and the “post-emergent herbicidal activity index” value (Quackgrass) was 0 (0-24% inhibition). The “post-emergent herbicidal activity index” value (Rhizome Johnsongrass) was 0 (0-24% inhibition), the “post-emergent herbicidal activity index” value (Velvetleaf) was 0 (0-24% inhibition) and the “post-emergent herbicidal activity index” value (Yellow Nutsedge) was 0 (0-24% inhibition). For the same compound, the “post-emergent herbicidal activity index” value (Barnyardgrass) was 0 (0-24% inhibition) and the “post-emergent herbicidal activity index” value (Common Lambsquarters) was 0 (0-24% inhibition).
